From article PMC12136788 come the findings set out here.

The chains are these.
B1: chr2:73958838:73958951:+|3pUTR|ENSG00000114956|unk|FALSE|unique (ssRNA)
RNA: GGGAGUUCUACAGUCCGACGAUCCCAGCCCCUCUCAUCCCUGGAGCACUCUGCCGCUCAAGAGCUGGUUUGUUAAUUAUUGUUAGACUUUGCCAUUGUUUUCUUUUGUACCUGAAGCAUUUUGAAAAUAAAGUUUACUUAAGUCAACAGAGGAUUGAGCAUCA
B2: chr2:190062223:190062596:-|CDS|ENSG00000138379|control|control|control (ssRNA)
RNA: GGGAGUUCUACAGUCCGACGAUCGGAAAAAGAGGGGCUGUGUAAUGCAUGUACUUGGAGACAAAACACUAAAUCUUCAAGAAUAGAAGCCAUUAAGAUACAAAUCCUCAGUAAACUUCGUCUGGAAACAGCUCCUAACAUCAGCAACAGAGGAUUGAGCAUCA
B3: ENSG00000107863:be:win_551|CDS|ENSG00000107863|bound_else_gene|NA|bound_elsewhere_windowed (ssRNA)
RNA: GGGAGUUCUACAGUCCGACGAUCAAGGCAACGAAGCUUAUAGCGGCAAUGCCCGCAAUAUACCUGAACCUCCACCAAUCUGCUAUCCCUGGCUGCCAUCUGCCCCAUCAGCCAUGGCACAGCCAGUUGAAAUAUCUCCUCCUGCAACAGAGGAUUGAGCAUCA
B4: chr3:98585547:98585662:-|CDS|ENSG00000080819|unk|total|mutant (ssRNA)
RNA: GGGAGUUCUACAGUCCGACGAUCUCCAUUUGAUCCCUGGUUUGGCGCCGCUGUGUUUUCCAGGUGUGAUGAUUACUUCUUUACCGCCCAUCGUGGAGAACGGCGGGGCAUUGGUGGUAUCUUUUUUGAUGAUCUUGACUCUCCCAACAGAGGAUUGAGCAUCA
B5: chr9:124811826:124811928:+|3pUTR|ENSG00000185585|msi1|total|mutant (ssRNA)
RNA: GGGAGUUCUACAGUCCGACGAUCAAGAAAUUUUCCCGCCCAACUCCCUGUUUCAUGAAAGAGAAAAGAGGCUCAGAAAAGUUCCGAGAGCAGCUCAGUGUCACACUGGGAGCUGGGCACAGCCGAUCUCCUUCCAGAAGGGUUCAACAGAGGAUUGAGCAUCA
B6: chr17:48762233:48762973:-|three_prime_utr|ENSG00000170703|control|control|control (ssRNA)
RNA: GGGAGUUCUACAGUCCGACGAUCGUCUCUUCCGACAGUGUCUCCAGUGUUCACAGAAUCAACUGAAGUUUUGUUUGCUCAUCUAGAUAUACUGGUCUUCCAUUAGUUCCUAGUAGCAGCAAUGGGGCCAACAGCCCUGCCUCUCAACAGAGGAUUGAGCAUCA
B7: chr22:45843749:45843850:+|3pUTR|ENSG00000130638|msi1|FALSE|unique (ssRNA)
RNA: GGGAGUUCUACAGUCCGACGAUCAAAUUGCAAGUGUUUGAAGAUUUAUAAGUACAAAUUUGGGAACAUACAAAUCUUUUAGGUAGUAGAGUUUAACGUGUAUAAGCUAAAAGUGAAAGUAACUGAGUGUUCUCUUGUUUCUUUCAACAGAGGAUUGAGCAUCA
B8: chr11:119418629:119418730:-|3pUTR|ENSG00000154096|msi1|total|mutant (ssRNA)
RNA: GGGAGUUCUACAGUCCGACGAUCCCUCAGAGGCCUUGGGGCAUGACCCAGUGAAGAUGCAGGUUUGACCAGGAAAGCAGCGCCCGUGGAGGGUUGGAGAAGGAGGUAAAGGAUGAGGGUUCAUCAUCCCUCCCUGCCUAAGGACAACAGAGGAUUGAGCAUCA
B9: chr17:39471515:39471616:+|CDS|ENSG00000167258|unk|FALSE|unique (ssRNA)
RNA: GGGAGUUCUACAGUCCGACGAUCUUGCCUCCAAUACCAGCUCUUCCACAGCAACCACCUCUGCCUCCUUCUCAGCCAGCAUUUAGUCAGGUUCCUGCUUCCAGUACUUCAACUUUGCCCCCUUCUACUCACUCAAAGACAUCUCAACAGAGGAUUGAGCAUCA
B10: chr2:206003504:206003605:-|3pUTR|ENSG00000114933|msi1|total|mutant (ssRNA)
RNA: GGGAGUUCUACAGUCCGACGAUCGGUCGUGUGAGCCGCACAACCUUUUUCUGCUAAAAGUCCGCCCAAGAAGAAACAGAACACCGAAAGCUUGGAUUCCCGUCAGUGAGGCCGGGAUGUCCUAAAAAGCUUGCCUGGGAUGACCAACAGAGGAUUGAGCAUCA
B11: chr1:165890246:165890361:+|CDS|ENSG00000143179|unk|total|mutant (ssRNA)
RNA: GGGAGUUCUACAGUCCGACGAUCCUCCUGGGGCAGAAUGAGGUGGACUAUCGCCAGAAGCAGGUGGUCAUCCUGAGCCAGGACCGCUUCUACCGUGUCCUUACCUCGGAGCAGAAGGCCAAAGCCCUGAAGGGCCAGUUCAACCAACAGAGGAUUGAGCAUCA
B12: chr2:30158716:30158817:+|CDS|ENSG00000119801|msi1|total|mutant (ssRNA)
RNA: GGGAGUUCUACAGUCCGACGAUCGUUUGCCACUGAAGACAGCCAGCGAUAUAAGGAAGGCCGCGUGAUCCUGGAACGUGCUCCCGUUCGAGAGAGUGAGGGCUUUGAGGAGCAUGUACCAUCUGAUAACUCUUGAAGAUACAGCAACAGAGGAUUGAGCAUCA
B13: chr6:33573622:33573723:-|3pUTR|ENSG00000030110|unk|total|mutant (ssRNA)
RNA: GGGAGUUCUACAGUCCGACGAUCCGAAGUCUUUGCCUUCUCUGUUCCCUUGCAGGGGUCCCCCCUCAAGAGUACAGAAGCUUCCGCAAGUGUGCACUCCAGCUUCGGAGGGCCCCUGCGUGGGGGCCAGUCAGGCUGCAGAGGCAACAGAGGAUUGAGCAUCA
B14: chr6:122458524:122458701:-|CDS|ENSG00000111897|unk|total|mutant (ssRNA)
RNA: GGGAGUUCUACAGUCCGACGAUCGGAAGUGCCCCGUGUUUGCUAUGCCGAUGCUGUCCCCGUGGAAACAACUCCACUGUAACCCGAUUGAUCUAUGCACUUUUCUUGCUUGUUGGAGUAUGUGCCGCUUGUGUAAUGUUGAUACAACAGAGGAUUGAGCAUCA

The other results are listed elsewhere or left out.

The assay concerns the target T1, UNK ZnF1-6 (called full-length) (human, UniProt Q9C0B0 30-357).
T1 sequence: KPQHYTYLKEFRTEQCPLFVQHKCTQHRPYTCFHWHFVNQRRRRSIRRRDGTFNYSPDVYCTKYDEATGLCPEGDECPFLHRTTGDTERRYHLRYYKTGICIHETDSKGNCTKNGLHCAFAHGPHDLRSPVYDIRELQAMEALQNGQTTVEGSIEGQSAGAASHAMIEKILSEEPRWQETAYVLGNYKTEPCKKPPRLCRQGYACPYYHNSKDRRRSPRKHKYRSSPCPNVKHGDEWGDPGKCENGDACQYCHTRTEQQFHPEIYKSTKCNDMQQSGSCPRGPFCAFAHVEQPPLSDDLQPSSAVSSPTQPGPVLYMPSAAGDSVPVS
As to the kind of experiment: nsRBNS (natural sequence RNA bind-n-seq); RBNS binding buffer (assumed for nsRBNS): 25 mM Tris pH 7.5, 150 mM KCl, 3 mM MgCl2, 0.01% Triton X-100, 500 ug/ml BSA, 20 U/ml SUPERase-In, 4 C; UNK is unkempt and MSI1 is Musashi-1; names of the RNAs are library labels; protein concentration not given here; high values mean tight binding.
B1 yielded a binding signal of 0.799 enrichment R. For B2 the value was 0.418 enrichment R; for B3, 0.653 enrichment R; for B4, 0.501 enrichment R. For B5 the value was 0.595 enrichment R; for B6, 0.955 enrichment R. With B7, the binding signal was found to be 0.639 enrichment R.

B8 came in with a binding signal of 0.833 enrichment R.

With B9, the binding signal is 1.13 enrichment R.

Molecule B10 showed a binding signal of 0.479 enrichment R. For B11 the value was 0.709 enrichment R; for B12, 0.708 enrichment R; for B13, 0.495 enrichment R. For B14 the value was 0.501 enrichment R.
